Measurements: the supplement of paper PMC9446081
Screen size: about 39,000 compounds; about 220 (0.56%) showed activity. The list shows a part of the results.
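Note: static incubation at 37 °C against the wild-type strain, values averaged over two biological replicates.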

Each molecule was assayed on Escherichia coli K-12 BW25113 (assay: relative growth (OD600 normalised to plate interquartile mean) (fraction); higher = less growth inhibition, active = 0.2 or less). Details: 50 µM; LB; incubation time: overnight (16-24 h).
With `NC(=O)N1C(=O)[C@H]2[C@H](C1=O)[C@H]1C=C(CCCO)[C@@H]2[C@H](c2ccc(CN3CCCC3)cc2)N1Cc1sc2ccccc2c1Cl` the relative growth was inactive: 1.02.
In the case of `C=CC[C@@H](CC(=O)N[C@H](CO)Cc1ccccc1)C(=O)NCCOC(=O)[C@H](CC=C)CC(=O)OC(C)(C)C`, the relative growth is reported as inactive: 1.01.
In the case of `C[C@@H]1CN([C@@H](C)CO)C(=O)Cc2cc(NC(=O)Nc3cccc4ccccc34)ccc2O[C@H]1CN(C)C(=O)Nc1ccc2c(c1)OCO2`, the relative growth is reported as inactive: 1.02.
`COc1ccc(NC(=O)Nc2ccc3c(c2)C(=O)N([C@@H](C)CO)C[C@@H](C)[C@@H](CN(C)Cc2ccc(C(F)(F)F)cc2)O3)cc1` was tested, and the relative growth was inactive: 0.955.
In the case of `COCCOC(=O)N1C(=O)[C@@]2(c3cc(C#Cc4ccc(OC)cc4)ccc31)[C@H](C(=O)NC[C@H](O)c1ccccc1)[C@H]1C(=O)O[C@H](c3ccccc3)[C@H](c3ccccc3)N1[C@@H]2c1ccc(O)cc1`, the relative growth is reported as inactive: 1.05.
In the case of `COc1ccccc1C#Cc1ccc2c(c1)O[C@@H](CN(C)Cc1ccncc1)[C@@H](C)CN([C@@H](C)CO)S2(=O)=O`, the relative growth is reported as inactive: 0.988.
With `NCC1CCC(C(=O)O)CC1` (stereo not drawn) the relative growth was inactive: 1.12.
For `C[C@H](NC(=O)[C@@H]1N[C@@H]2c3ccc(-c4ccc(C(=O)N(C)C)cc4)c(=O)n3C[C@@H]2[C@H]1CO)c1ccccc1`, the relative growth was inactive: 0.998.
`CC(C)(C)[S@](=O)N1Cc2cc(C(=O)NCc3ccncc3)nc(-c3cccc(-c4ccc(C#N)cc4)c3)c2[C@@H]1CCO` was tested, and the relative growth was inactive: 0.983.
`C[C@H]1CN([C@@H](C)CO)C(=O)Cc2cc(NC(=O)CCCCCC(=O)Nc3ccccc3N)ccc2O[C@@H]1CN(C)Cc1ccc(Oc2ccccc2)cc1` was tested, and the relative growth was inactive: 0.973.
`C=CCN1C(=O)[C@@]2(O[C@@H](CCn3cc(CCO)nn3)[C@H]([Si](C)(C)c3ccc(OC)cc3)[C@H]2C)c2cc(N3CCC3=O)ccc21` was tested, and the relative growth was inactive: 1.01.
With `CN1CCN(C(=O)C[C@H]2CC[C@H]3[C@@H](COC[C@H](O)CN3C(=O)Nc3cc(Cl)cc(Cl)c3)O2)CC1` the relative growth was inactive: 0.976.
`O=C1NCCN1CCNC(=S)NC1CC1` was tested, and the relative growth was inactive: 0.992.
In the case of `Cc1noc(C)c1S(=O)(=O)Nc1ccc2c(c1)C(=O)N([C@H](C)CO)C[C@@H](C)[C@H](CN(C)C(=O)Nc1ccccc1)O2`, the relative growth is reported as inactive: 0.997.
For `COc1ccc(S(=O)(=O)N(C)C[C@H]2OCCCC[C@@H](C)Oc3ccc(NS(C)(=O)=O)cc3C(=O)N([C@@H](C)CO)C[C@H]2C)cc1`, the relative growth was inactive: 0.963.
In the case of `C[C@H](CO)N1C[C@H](C)[C@@H](CN(C)C(=O)c2ccncc2)Oc2cc(C#CC3(O)CCCC3)ccc2S1(=O)=O`, the relative growth is reported as inactive: 1.
With `CN1C(=O)c2cc(NC(=O)Cc3cccs3)ccc2OC[C@@H]2O[C@@H](CC(=O)NCCc3ccncc3)CC[C@H]21` the relative growth was inactive: 1.
In the case of `C[C@@H]1CN([C@@H](C)CO)C(=O)c2cccc(NS(C)(=O)=O)c2O[C@@H]1CN(C)S(=O)(=O)c1ccc(Cl)cc1`, the relative growth is reported as inactive: 0.83.
For `O=C(CCCCCNC(=O)OCCCCO[C@@H]1C[C@H](c2ccc(C(F)(F)F)cc2)C=C(C(=O)N2CCN(Cc3ccccc3)CC2)O1)NO`, the relative growth was inactive: 1.02.
`C[C@@H]1CN([C@@H](C)CO)C(=O)Cc2cc(NC(=O)c3ccncc3)ccc2O[C@@H]1CN(C)S(=O)(=O)c1ccc(Cl)cc1` was tested, and the relative growth was inactive: 0.984.
With `C[C@H]1CN([C@@H](C)CO)C(=O)CCCn2cc(nn2)CO[C@@H]1CN(C)C(=O)c1ccc(N2CCN(C)CC2)cc1` the relative growth was inactive: 0.988.
`CCN1C(=O)[C@H]2[C@H]3[C@H](O)[C@H](O)C/C(=N\OC[C@@H](O)COCc4ccco4)[C@@H]3CC[C@H]2C1=O` was tested, and the relative growth was inactive: 0.989.
In the case of `Cc1noc(C)c1S(=O)(=O)Nc1cccc2c1O[C@@H](CN(C)C(=O)Nc1ccccc1)[C@@H](C)CN([C@@H](C)CO)C2=O`, the relative growth is reported as inactive: 0.918.
`Cc1ccc(S(=O)(=O)N(C)C[C@@H]2OCCCC[C@H](C)Oc3ccc(NC(=O)CCC(F)(F)F)cc3C(=O)N([C@H](C)CO)C[C@@H]2C)cc1` was tested, and the relative growth was inactive: 1.04.
In the case of `C[C@@H]1CN([C@H](C)CO)C(=O)Cc2cc(NC(=O)Nc3ccccc3)ccc2O[C@H]1CN(C)C(=O)Nc1cccc2ccccc12`, the relative growth is reported as inactive: 1.01.
For `C[C@@H]1CCCCO[C@@H](CN(C)C(=O)Nc2ccccc2)[C@@H](C)CN([C@H](C)CO)C(=O)c2cc(NC(=O)Nc3ccc4c(c3)OCO4)ccc2O1`, the relative growth was inactive: 1.
With `C[C@H]1[C@H]([Si](C)(C)F)[C@@H](CC(=O)N2Cc3ccccc3C[C@H]2CO)O[C@]12C(=O)N(c1ccccc1)c1ccccc12` the relative growth was inactive: 1.02.
With `COc1ccc(S(=O)(=O)N(C)C[C@@H]2Oc3c(NC(=O)Nc4cccc5ccccc45)cccc3C(=O)N([C@H](C)CO)C[C@H]2C)cc1` the relative growth was inactive: 1.01.
In the case of `C[C@@H]1CCCCO[C@H](CN(C)Cc2ccc(C(F)(F)F)cc2)[C@@H](C)CN([C@@H](C)CO)C(=O)c2cc(NC(=O)c3ccncc3)ccc2O1`, the relative growth is reported as inactive: 0.967.
With `CC(C)(O)c1ccccc1CCC(SCC1(CC(=O)[O-])CC1)c1cccc(C=Cc2ccc3ccc(Cl)cc3n2)c1.[Na+]` (stereo not drawn) the relative growth was inactive: 0.742.
For `COc1ccc(CN(C)C[C@@H]2OCCCC[C@@H](C)Oc3ccc(NC(=O)C4CCCCC4)cc3C(=O)N([C@H](C)CO)C[C@H]2C)cc1`, the relative growth was inactive: 0.985.
`Cn1cnc(S(=O)(=O)N2CC[C@@H](O)[C@@H]2Cc2cnn(C)c2)c1` was tested, and the relative growth was inactive: 0.979.
For `COc1ccc(S(=O)(=O)Nc2ccc3c(c2)C(=O)N([C@H](C)CO)C[C@@H](C)[C@H](CN(C)Cc2ccc(Cl)c(Cl)c2)OCCCC[C@H](C)O3)cc1`, the relative growth was inactive: 0.989.
`Cc1ccc(S[C@]2(C(=O)NC(C)C)CC(=O)N(Cc3cc(C(F)(F)F)cc(C(F)(F)F)c3)[C@@H]2c2ccc(CO)cc2I)cc1` was tested, and the relative growth was inactive: 0.977.
For `COc1ccccc1CNC(=O)C[C@H]1C[C@@H]2c3cc(NC(=O)c4ccc5c(c4)OCO5)ccc3O[C@@H]2[C@@H](CO)O1`, the relative growth was inactive: 1.01.
`C[C@H]1CCCCO[C@H](CN(C)C(=O)C2CCCCC2)[C@@H](C)CN([C@@H](C)CO)C(=O)c2cc(NC(=O)c3ccncc3)ccc2O1` was tested, and the relative growth was inactive: 0.97.
With `CC#N` the relative growth was inactive: 0.993.
With `C[C@@H]1CN([C@@H](C)CO)C(=O)c2cccc(NC(=O)Nc3ccccc3)c2O[C@H]1CN(C)CC1CCCCC1` the relative growth was inactive: 0.99.
In the case of `O=C(C[C@@H]1C[C@@H]2c3cc(NS(=O)(=O)c4ccc(F)cc4)ccc3O[C@@H]2[C@@H](CO)O1)NC1CCCC1`, the relative growth is reported as inactive: 0.981.
`C[C@H](CO)N1C[C@H](C)[C@@H](CN(C)S(=O)(=O)c2ccc(Cl)cc2)Oc2ccc(NC(=O)Cn3cnnn3)cc2C1=O` was tested, and the relative growth was inactive: 1.02.
In the case of `CN(C)Cc1cn(CC[C@@H]2CC[C@H](NS(=O)(=O)c3ccccc3)[C@H](CO)O2)nn1`, the relative growth is reported as inactive: 1.01.
For `CNC[C@H]1Oc2ccc(NC(=O)Cn3cnnn3)cc2C(=O)N([C@@H](C)CO)C[C@H]1C`, the relative growth was inactive: 0.988.
For `C[C@@H]1CCCCO[C@H](CN(C)C(=O)NC2CCCCC2)[C@@H](C)CN([C@@H](C)CO)C(=O)c2cc(NC(=O)c3ccncc3)ccc2O1`, the relative growth was inactive: 0.998.
In the case of `C[C@@H]1CCCCO[C@H](CN(C)C(=O)Nc2ccccc2)[C@@H](C)CN([C@H](C)CO)C(=O)c2cc(NC(=O)c3ccccc3)ccc2O1`, the relative growth is reported as inactive: 1.
`C[C@@H]1CN([C@H](C)CO)C(=O)c2cc(-c3cncnc3)cnc2O[C@H]1CN(C)C(=O)CN1CCOCC1` was tested, and the relative growth was inactive: 1.01.
In the case of `N#Cc1cccc(NCCN2CCNC2=O)n1`, the relative growth is reported as inactive: 1.01.
With `COc1ccc(S(=O)(=O)Nc2cccc3c2O[C@H](CN(C)C(=O)Nc2c(C)noc2C)[C@H](C)CN([C@H](C)CO)C3=O)cc1` the relative growth was inactive: 0.987.
`Cn1cnc(=O)c2ccccc21` was tested, and the relative growth was inactive: 1.01.
`Cc1ccc(-c2cnc3c(c2)C(=O)N([C@@H](C)CO)C[C@H](C)[C@H](CN(C)C(=O)Cc2ccncc2)O3)cc1` was tested, and the relative growth was inactive: 1.01.
`CCCNC(=O)C[C@H]1CC[C@H]2[C@@H](COc3ccc(NC(=O)c4ccc5c(c4)OCO5)cc3C(=O)N2C)O1` was tested, and the relative growth was inactive: 1.01.
For `CN(C)CCOc1ccc(CN)cc1`, the relative growth was inactive: 0.969.
With `COCC#Cc1ccc2c(c1)O[C@@H](CN(C)S(=O)(=O)c1ccc(OC)cc1)[C@H](C)CN([C@@H](C)CO)S2(=O)=O` the relative growth was inactive: 1.03.
`C[C@H]1CN([C@@H](C)CO)C(=O)c2cc(NC(=O)CCCN(C)C)ccc2O[C@H]1CN(C)Cc1ccc2c(c1)OCO2` was tested, and the relative growth was inactive: 0.985.
With `Cc1noc(C)c1S(=O)(=O)Nc1ccc2c(c1)C(=O)N([C@H](C)CO)C[C@@H](C)[C@H](CN(C)C(=O)Nc1ccc(F)cc1)OCCCC[C@H](C)O2` the relative growth was inactive: 0.991.
With `C[C@@H]1CN([C@H](C)CO)C(=O)c2cccc(NC(=O)C3CC3)c2O[C@@H]1CN(C)C(=O)NC1CCCCC1` the relative growth was inactive: 1.
`COc1ccc(S(=O)(=O)N(C)C[C@@H]2OCCCC[C@H](C)Oc3ccc(NC(=O)C4CCCCC4)cc3C(=O)N([C@@H](C)CO)C[C@H]2C)cc1` was tested, and the relative growth was inactive: 1.04.
For `C[C@@H]1CCCCO[C@@H](CN(C)Cc2ccc(Cl)c(Cl)c2)[C@@H](C)CN([C@@H](C)CO)C(=O)c2cc(NC(=O)Nc3ccc(C(F)(F)F)cc3)ccc2O1`, the relative growth was inactive: 1.03.
In the case of `C[C@H](CO)N1C[C@H](C)[C@H](CN(C)C(=O)Nc2cccc3ccccc23)OCCCC[C@H](C)Oc2ccc(NC(=O)c3ccccc3)cc2C1=O`, the relative growth is reported as inactive: 1.
